The nature of test [1]: qHTS Assay for Lipid Storage Modulators (AID 1519). Conditions: Drosophila S3 cells, BODIPY lipid droplet/cell ratio, laser cytometry, cells loaded with oleic acid. A digest of the protocol: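 Cells seeded at 5,000 per well were treated with compounds over a concentration series and loaded with oleic acid (400 uM, as added). Lipid droplet fluorescence (488 nm excitation, 500-530 nm channel) was read by laser-scanning cytometry and normalized to 20 uM Triacsin C.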

A short description of test [2]: qHTS Assay for Modulators of Human Peripheral Myelin Protein 22 (PMP22) Expression/Activity (AID 1967). The following applies: Cell-based PMP22 reporter, dual-color luciferase ratio. A digest of the protocol: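 Mouse MSC80 Schwann cells carrying Pmp22 promoter–green click beetle luciferase plus EF-alpha–red luciferase control, dosed 24 h at 37 °C. Dual-filter luminescence, overlap-corrected; %Activity from green/red ratio normalised to untreated cells, concentration-response curves fitted.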
For orientation: In qHTS, concentration-response curves come from the screen itself.

The nature of test [3]: qHTS Validation Assay to Find Inhibitors of Chronic Active B-Cell Receptor Signaling (AID 485345). The following applies: ABC-DLBCL cells, chronic BCR signaling reporter. A digest of the protocol:
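Read-out: ratio of filter-corrected green (IkappaBalpha fusion) to red (native) luciferase signal in doxycycline-induced TMD8 cells after 4 h at 37C. Titration spanned 46 uM–3 nM; Data were normalised to basal cells and 10 uM MG-132 wells.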

A short description of test [4]: qHTS assay for small molecule antagonists of glucocorticoid receptor signaling (AID 588533).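 Also: cells stimulated with 2 nM dexamethasone as agonist.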 The following applies: HeLa MMTV-bla, GRE beta-lactamase ratio, antagonist mode, 18 h; measured here: W530 channel AC50.
A short description of test [5]: S16 Schwann cell PMP22 intronic element beta-lactamase assay (AID 624044). Also: nearly all actives have a fitted effect of over 15% in size. The following applies: S16 rat Schwann cells, PMP22 element beta-lactamase FRET, 24 h; measured here: 460 nm blue channel. Put shortly: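 Rat S16 Schwann cells with beta-Lac driven by a PMP22 intronic element, compound-treated 24 h at 37 °C. LiveBLAzer FRET B/G read: 460 nm normalized to potassium clavulanate vs DMSO; 535 nm FRET as viability; concentration-effect curves classified.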

The nature of test [6]: Nrf2 qHTS screen for inhibitors: Validation (AID 493153). Conditions: A549 ARE-Fluc reporter, 18-24 h; AC50: CellTiter-Fluor fluorescence read, measured here: cytotoxicity CellTiter-Fluor AC50; viability change: measured here: cytotoxicity max response. Put shortly: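 A549 cells carrying an ARE-driven firefly luciferase reporter, in 5% FBS OPTI-MEM, were treated with compounds in concentration-response for 18-24 h at 37°C. Viability was read by CellTiter-Fluor fluorescence, then Nrf2 activity by luciferase luminescence.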

Test [7] can be described thus: qHTS assay for small molecule antagonists of peroxisome proliferator-activated receptor delta signaling (AID 588535).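 Also: cells co-treated with a PPAR-delta agonist as stimulator during compound exposure.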 Conditions: HEK293T PPARd-UAS-bla, beta-lactamase FRET ratio, 18 h; 460 nm channel. A digest of the protocol: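 Cell-based beta-lactamase assay in antagonist mode: 4000 HEK293T PPAR-delta-UAS-bla cells per well, 5 hr preincubation then 18 hr compound incubation at 37 C. IC50 obtained by Hill equation fitting.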

Test [8] can be described thus: qHTS assay for small molecule antagonists of peroxisome proliferator-activated receptor gamma signaling (AID 588537). The following applies: HEK293 PPARg-UAS-bla, beta-lactamase ratio, antagonist mode; measured here: W460 blue channel. A digest of the protocol: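 Inhibitors of agonist-stimulated UAS-bla reporter activity were sought in HEK293 cells; rosiglitazone (50 nM) defined full signal and DMSO baseline. Curves fitted to Hill model gave IC50 and efficacy.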

Test [9] can be described thus: qHTS assay for small molecule agonists of retinoid X receptor alpha signaling (AID 588544). The following applies: HEK293T RXRa-UAS-bla, beta-lactamase reporter, 18 h; 530 nm emission.
[10] abbreviates: measured here: cell count channel max response.
Where [11] appears, read: measured here: cell number channel AC50.
[12] abbreviates: measured here: lipid (BODIPY) channel AC50.
Where [13] appears, read: measured here: lipid channel max response.
[14] abbreviates: measured here: green reporter channel AC50, mouse Pmp22 promoter in mouse Schwann cells.
Where [15] appears, read: measured here: red reporter channel AC50, EF-alpha promoter control reporter in MSC80 mouse Schwann cells.
The mark [16] stands for this setting: measured here: CBR control luciferase (viability counter).

SMILES strings stand for the structures. “And” between values parts separate entries of the source, which are not always exact repeats. Equal values may be shown once. The list shows a part of the results. Further columns of the screen follow, without active or inactive calls. Compounds called inactive in the main read-out are mostly missing here. For some of these results: Words in brackets tell the shape of the fitted curve; partial curves, single points and poor fits give uncertain potencies.
Tags tell the direction and shape of the fitted curve.

As for `O=c1c2ccccc2[se]n1-c1ccccc1`, the max response was -55.9% and -38.8% in [1] (setting [10]); -81% and -42.1% in test [1] (setting [13]). For the same compound, the AC50 in test [1] (setting [11]) is 15.8 µM [falling, single point] and 15.8 µM [falling, partial curve, poor fit]; in [1] (setting [12]), 15.8 µM [falling, single point] and 15.8 µM [falling, full curve, poor fit]; in test [2] (setting [14]), 42.6 µM [falling, full curve]; in [2] (setting [15]), 33.8 µM [falling, full curve]; in test [3] (measured here: CBG/CBR ratio read-out), 18.4 µM [falling, partial curve]; in test [3] (setting [16]), 16.4 µM [falling, partial curve].
As to `OC1(c2ccc(Cl)cc2)CCN(Cc2c[nH]c3ccccc23)CC1`, the max response in [1] (setting [10]) worked out at 42.5%; in test [1] (setting [13]) it was 49.3%. Also, the AC50 in [1] (setting [11]) is 35.5 µM [rising, single point]; in [1] (setting [12]), 35.5 µM [rising, single point]; in test [2] (setting [14]) it was 37.9 µM [falling, partial curve]; in [2] (setting [15]) it was 42.6 µM [falling, full curve].
As to `NC(N)=NC(=O)c1nc(Cl)c(N)nc1N`, the max response in test [1] (setting [10]) was -49.8%; in test [1] (setting [13]), -47.3%. The concentration at half-maximal activity (AC50) is 7.08 µM [falling, full curve] in [1] (setting [11]); 7.08 µM [falling, full curve] in test [1] (setting [12]); 7.31 µM [falling, partial curve] in test [3] (setting [16]); 50.1 µM [falling, partial curve, poor fit] in [4].
As to `N#CC(C#N)=Cc1cc(O)c(O)c(O)c1`, the max response in [1] (setting [10]) stood at 27%; in test [1] (setting [13]) it was 22.9%. For the same compound, the half-maximal activity concentration (AC50) in test [1] (setting [11]) was 3.55 µM [falling, partial curve, poor fit]; in test [1] (setting [12]), 6.31 µM [falling, partial curve, poor fit]; in test [2] (setting [15]), 67.5 µM [falling, partial curve]; in test [5], 15.8 µM [falling, partial curve, poor fit].
Turning to `O=C1CC2(CCCC2)CC(=O)N1CCCCN1CCN(c2ncccn2)CC1`, the results for the max response in test [1] (setting [10]) and in test [1] (setting [13]) were 57.8% and 67.5%, respectively. For the same compound, the AC50 is 15.8 µM [rising, partial curve, poor fit] in test [1] (setting [11]); 15.8 µM [rising, partial curve, poor fit] in test [1] (setting [12]); 84.9 µM [falling, single point] in [2] (setting [15]). The viability change in test [6] was 0.854%.
As for `CC[C@@H](CO)NC(=O)[C@H]1C=C2c3cccc4c3c(cn4C)C[C@H]2N(C)C1`, the max response in [1] (setting [10]) stood at 44.5%; in test [1] (setting [13]), 72.8%. Moreover, the concentration at half-maximal activity (AC50) in test [1] (setting [11]) was 14.1 µM [rising, full curve, poor fit]; in test [1] (setting [12]), 14.1 µM [rising, full curve, poor fit]; in test [2] (setting [14]), 84.9 µM [falling, single point]; in test [2] (setting [15]), 84.9 µM [falling, single point].
`S=C(S)N1CCCC1`: the max response in [1] (setting [10]) was 64.4% and 35.7%; in [1] (setting [13]), 15.4% and 34.2%. Also, the half-maximal activity concentration (AC50) in [1] (setting [11]) was 15.8 µM [rising, full curve] and 39.8 µM [rising, single point]; in test [1] (setting [12]), 14.1 µM [rising, partial curve, poor fit] and 39.8 µM [rising, single point]; in [2] (setting [14]), 6.01 µM [falling, full curve].
`COc1ccc2[nH]cc(CCN)c2c1`: the max response was 21.7% and -29.7% in test [1] (setting [10]); 31.5% and -30.2% in [1] (setting [13]). The AC50 in [1] (setting [11]) is 0.1 µM [falling, full curve, poor fit]; in test [1] (setting [12]), 2 µM [rising, partial curve]; in [2] (setting [14]), 42.6 µM [falling, full curve]; in test [2] (setting [15]) it was 42.6 µM [falling, full curve].
Take `COC(=O)C1=C(C)NC(C)=C(C(=O)OC)C1c1ccccc1[N+](=O)[O-]`: the max response was 101% and -1.76% in test [1] (setting [10]); 125% and -51.2% in [1] (setting [13]); -66.7% in [7]; 48.9% in test [9]. Besides, the AC50 in [1] (setting [11]) is 3.16 µM [rising, full curve]; in test [1] (setting [12]), 3.16 µM [rising, full curve]; in test [2] (setting [14]), 53.6 µM [falling, partial curve]; in [2] (setting [15]), 75.7 µM [falling, single point]; in test [3] (setting [16]), 14.6 µM [falling, partial curve]; in [8], 70.8 µM [rising, single point].
Turning to `CN1CCN(C2=Nc3cc(Cl)ccc3Nc3ccccc32)CC1`, the max response in [1] (setting [10]) was 73.6% and 38.3% and 63.3%; in [1] (setting [13]) it was 89.4% and 61.8% and 62.5%. The concentration at half-maximal activity (AC50) in [1] (setting [11]) is 28.2 µM [rising, partial curve, poor fit] and 11.2 µM [rising, partial curve, poor fit]; in test [1] (setting [12]), 28.2 µM [rising, partial curve, poor fit] and 15.8 µM [rising, partial curve, poor fit]; in test [2] (setting [14]), 42.6 µM [falling, partial curve]; in test [2] (setting [15]), 47.8 µM [falling, partial curve].
On to `N[C@@H](CCl)C(=O)O`, for which the max response in test [1] (setting [10]) is -45.5%; in test [1] (setting [13]), -43.7%. Also, the AC50 in test [1] (setting [11]) is 20 µM [falling, partial curve, poor fit]; in [1] (setting [12]), 20 µM [falling, partial curve, poor fit]; in test [2] (setting [15]), 84.9 µM [falling, single point].

What is called AC50 is the concentration at which the activity in the assay is half-maximal.

For the origin of these results see PubChem BioAssay (NCATS).
